This is an account of results in publication PMC4336329 (PLoS ONE, 2015).

Screen size: about 310,000 compounds; about 2,200 (0.71%) showed an effect of 50% or more. The effect is printed as a negative number. The list shows a part of the results.

The target of the test is human ether-à-go-go-related gene (hERG) potassium channel (human, UniProt Q12809). Put plainly: primary screen, population patch clamp on CHO cells stably expressing hERG.
human ether-à-go-go-related gene (hERG) potassium channel, sequence (Q12809 whole entry, looked up): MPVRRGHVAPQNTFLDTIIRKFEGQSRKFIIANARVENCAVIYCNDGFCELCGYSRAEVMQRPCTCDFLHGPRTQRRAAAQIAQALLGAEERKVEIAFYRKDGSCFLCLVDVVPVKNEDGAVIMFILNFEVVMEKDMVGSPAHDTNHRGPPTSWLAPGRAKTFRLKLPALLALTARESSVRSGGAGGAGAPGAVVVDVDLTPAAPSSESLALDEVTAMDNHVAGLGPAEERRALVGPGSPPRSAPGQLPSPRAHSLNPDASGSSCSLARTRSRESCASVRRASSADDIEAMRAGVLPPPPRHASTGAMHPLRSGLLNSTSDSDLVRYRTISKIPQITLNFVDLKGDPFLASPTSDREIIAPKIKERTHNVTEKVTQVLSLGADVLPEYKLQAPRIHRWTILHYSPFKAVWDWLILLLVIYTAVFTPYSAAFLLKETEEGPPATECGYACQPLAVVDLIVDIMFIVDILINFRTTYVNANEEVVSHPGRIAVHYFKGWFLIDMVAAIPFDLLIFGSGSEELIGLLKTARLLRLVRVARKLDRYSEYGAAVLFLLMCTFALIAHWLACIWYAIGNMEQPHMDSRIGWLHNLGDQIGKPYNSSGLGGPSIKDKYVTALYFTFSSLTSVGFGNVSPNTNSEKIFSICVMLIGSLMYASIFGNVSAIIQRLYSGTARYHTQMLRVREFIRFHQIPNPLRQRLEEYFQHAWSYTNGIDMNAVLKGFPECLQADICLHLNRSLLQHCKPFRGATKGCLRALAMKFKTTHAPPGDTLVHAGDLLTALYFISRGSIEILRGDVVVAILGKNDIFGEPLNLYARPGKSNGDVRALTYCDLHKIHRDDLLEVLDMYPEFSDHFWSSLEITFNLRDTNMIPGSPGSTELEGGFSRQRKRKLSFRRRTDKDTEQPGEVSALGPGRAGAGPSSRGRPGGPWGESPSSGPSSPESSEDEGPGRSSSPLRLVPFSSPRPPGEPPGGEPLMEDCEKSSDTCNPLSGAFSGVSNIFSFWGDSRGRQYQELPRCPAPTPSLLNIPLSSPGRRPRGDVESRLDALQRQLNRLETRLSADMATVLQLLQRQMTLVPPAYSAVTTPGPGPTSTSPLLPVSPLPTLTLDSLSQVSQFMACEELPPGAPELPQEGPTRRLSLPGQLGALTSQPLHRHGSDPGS
On to `O=C(CCn1ccc2cc(S(=O)(=O)N3CCCC3)ccc21)NCCc1ccccc1`, for which the “hERG current change (%, negative = inhibition) at 1uM” value is given as 11.5%. To `O=C(Nc1cccnc1)c1cc2c(ccc3ccccc32)o1` belongs 9.97%; to `Cc1c(C(=O)C(=O)N2CCCc3ccccc32)c2ccccc2n1C`, 3.27%; to `Cc1cc(C)c2c(N)c(-c3nc4ccccc4[nH]3)sc2n1`, 17%. To `O=C(O)c1ccccc1C(=O)c1ccc(Cl)cc1` belongs 14.1%; to `NC(=O)c1cnn2c1NC(c1ccc(F)cc1)CC2C(F)(F)F` (stereo not drawn), -9.89%.

Turning to `Cc1occc1C(=O)N1CCN(c2ccc(Cl)cc2)CC1`, the “hERG current change (%, negative = inhibition) at 1uM” value came out at 12.8%. Consider `COc1ccc(Cc2nnc(SC(C)C(=O)Nc3ccc(F)cc3Cl)o2)cc1` (stereo not drawn), for which the “hERG current change (%, negative = inhibition) at 1uM” value stood at 11%.

`O=C(CS(=O)(=O)Cc1ccccc1)N1CCN(c2cccc(C(F)(F)F)c2)CC1`: the “hERG current change (%, negative = inhibition) at 1uM” value was -3.7%.

On to `O=C(NCCCn1ccnc1)Nc1ccc(Cl)c(Cl)c1`, for which the “hERG current change (%, negative = inhibition) at 1uM” value is reported as -4.67%.

With `CCO[C@@H]1OC(C(=O)NC2CC2)=C[C@H](c2ccccc2)[C@H]1CCCO`, the “hERG current change (%, negative = inhibition) at 1uM” value is 13.1%. As to `Cc1cccc(C)c1NC(=O)CCCN1CC(C)OC(C)C1` (stereo not drawn), the “hERG current change (%, negative = inhibition) at 1uM” value amounted to 8.94%. To `C#CCOCCOCCOCCNc1nc(N2CCOCC2)nc(N2CCN(C(=O)[C@H](Cc3ccc(O)cc3)n3cc([C@@H](N)CC(C)C)nn3)CC2)n1.Cl` belongs 0.33%; to `C=CCc1ccccc1OCC(CN1CCCCC1)OC(C)=O.Cl` (stereo not drawn), -12.5%. In the case of `CCOc1ccc(NC(=O)CNC(=O)c2cn(-c3ccccc3OC)c(=O)c3ccccc23)cc1` it was 8.19%; in that of `C1COCCO1.COc1ccc(NS(=O)(=O)c2ccc(N3CCOCC3)c(NC(=O)c3ccccc3Cl)c2)cc1`, 10.8%; in that of `Cc1cc(N)n(-c2ccc(S(=O)(=O)c3ccc(C(C)C)cc3)cc2)n1`, 1.96%. In the case of `COc1ccc(NC(=O)c2ccccc2NC(=O)c2ccco2)c(OC)c1` it was -27.6%.

Regarding `O=C(CN1C(=O)c2ccccc2C1=O)Nc1nnc(C2CCCO2)s1` (stereo not drawn), the “hERG current change (%, negative = inhibition) at 1uM” value is reported as 14.4%. In the case of `CC(=O)CSc1nnc(C(F)(F)F)n1C`, the “hERG current change (%, negative = inhibition) at 1uM” value is on record as 8.35%. Regarding `CCCC1(C(=O)OCC)NC(c2ccc(O)cc2)C2C(=O)N(c3cccc(C(C)=O)c3)C(=O)C21` (stereo not drawn), the “hERG current change (%, negative = inhibition) at 1uM” value was 13.8%.

In the case of `Cc1ccc(-c2n[nH]c(=S)c3ccccc23)cc1`, the “hERG current change (%, negative = inhibition) at 1uM” value stood at 6.87%.

With `CCC1NC(C(=O)O)Cc2c1[nH]c1ccccc21` (stereo not drawn), the “hERG current change (%, negative = inhibition) at 1uM” value came to 9.76%. On to `O=C(c1cccc(C(=O)N2CCN(Cc3ccccc3)CC2)c1)N1CCN(Cc2ccccc2)CC1`, for which the “hERG current change (%, negative = inhibition) at 1uM” value stood at 4.62%.

`COc1ccc(CN2CCCC(CO)(Cc3ccc(F)cc3F)C2)cc1` (stereo not drawn): the “hERG current change (%, negative = inhibition) at 1uM” value is given as 15.1%.

For the compound `Cc1ccccc1CN1C2=NCCN2c2ccccc21.Cl`, the “hERG current change (%, negative = inhibition) at 1uM” value is recorded as -13.7%.

With `CCC1=NN(C(=O)Cc2ccc([N+](=O)[O-])cc2)C(O)(C(F)(F)F)C1` (stereo not drawn), the “hERG current change (%, negative = inhibition) at 1uM” value is listed as 1.5%. In the case of `COc1cc(/C=C(/C#N)C(=O)Nc2ccccc2)c(Br)cc1OCc1ccc(C(=O)O)cc1` it was 4.35%; in that of `CC1N(O)C2CCCCCC2N1O` (stereo not drawn), 18.5%. To `CC12CCC(=O)N1C(C(=O)Nc1nc3ccc(Cl)cc3s1)CS2` (stereo not drawn) belongs 19.2%. To `COc1ccc(NS(=O)(=O)c2cccc(C(=O)OCC(=O)N3CCN(c4ccc(OC)cc4)CC3)c2)cc1` belongs 6.45%; to `CC1=C(C(=O)Nc2cc(C(=O)N3CCC(C)CC3)ccc2C)SCCO1`, 16.6%. Take `COc1ccc(NC(=O)Nc2ccc(F)c(F)c2)c(OC)c1`: the “hERG current change (%, negative = inhibition) at 1uM” value is on record as 6.37%. To `COc1ccccc1Oc1ccnc2cc(Cl)ccc12` belongs 13.2%; to `CCOc1ccc(C(=O)NCC(=O)OCC(=O)Nc2nnc(-c3ccccc3)o2)cc1`, 5.29%; to `Cc1csc2ncc(C(=O)Nc3ccon3)c(=O)n12`, 8.38%. For the compound `COc1ccccc1CNC(=O)c1cccs1`, the “hERG current change (%, negative = inhibition) at 1uM” value is 12.4%.

In the case of `Cc1ccc(CCC(=O)Nc2ccc([N+](=O)[O-])cc2Cl)o1`, the “hERG current change (%, negative = inhibition) at 1uM” value amounted to 8.33%. To `Cc1ccc(NC(=O)CCC(=O)N/N=C/c2ccc(O)cc2)cc1` belongs 17.8%; to `CCc1nccn1CCC(=O)NC1CC(C)(C)Cc2c1cnn2-c1ccc(OC)cc1` (stereo not drawn), 6.47%. To `COc1cc(CNc2ncc(-c3ccc(Br)cc3)n2C)cc(OC)c1OC.O=C(O)C(=O)O` belongs -17%; to `COCC(=O)N(CCc1ccc(OC)cc1)Cc1nc2ccccc2c(=O)[nH]1`, 10.1%.
